Assay results taken from ChEMBL document CHEMBL1201862, “PubChem BioAssay data set” (2004).
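Cultured in 96-well plates, cells were exposed to test compound for 48 hours across five concentrations. Here, GI50 denotes the concentration required for 50% inhibition of growth.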 Activity calls are given as the source filed them. No stated cut-off is given here; in the data, active = GI50 up to about 1.1 µM and inactive = higher.

tested on: NCI-H322M; assay: NCI-60 cell line screen, 48 h

Row | SMILES | GI50
1 | CC(C)NC(=O)OCc1c(COC(=O)NC(C)C)c(-c2cc[n+](COC(=O)C(C)(C)C)cc2)n2c1CCC2 | inactive: > 100 µM
2 | CC1=NC(C(C)C)C(=O)O1 (stereo not given) | inactive: > 100 µM
3 | CN(C(=O)c1cccs1)C(=S)N1CCN(c2ccccn2)CC1 | inactive: > 100 µM
4 | O=C1N/N=C\Nc2ccc(cc2)S(=O)(=O)c2ccc(cc2)/N=C\NNC1=O | inactive: > 100 µM
5 | O=C1C(Cl)C(c2ccc(Cl)cc2)N1n1cnc2ccccc2c1=O (stereo not given) | inactive: > 100 µM
6 | CCOc1ccccc1/N=N/C1C(=O)N(C(=O)CC(=O)Nc2ccccc2Cl)N=C1C (stereo not given) | inactive: > 100 µM
7 | CCCCNC(=S)OCCC(C)CCCC(C)C (stereo not given) | inactive: > 100 µM
8 | COc1cc(/C=C2\C[C@H]3[C@@H]4CCC5=CC(=O)CC[C@]5(C)[C@H]4CC[C@]3(C)C2=O)cc(OC)c1OC | inactive: 29.4 µM
9 | O=[N+]([O-])c1ccc2c(c1)nc1n2C(c2c(F)cccc2F)SC1 (stereo not given) | inactive: > 100 µM
10 | CCCOc1ccc(-c2nc(-c3ccc(/N=C/c4ccc(N(CCOS(C)(=O)=O)CCOS(C)(=O)=O)cc4C)cc3)cs2)cc1 | inactive: 15.5 µM
11 | CCCN(CCC)C(=S)N/N=C(/C)c1ccccc1O | inactive: 7.59 µM
12 | O=C1C=C(c2c(O)ccc3ccccc23)c2cc(O)ccc2C1=O | inactive: 19 µM
13 | CNc1ccc([S+]([O-])Nc2ccccc2)cc1 (stereo not given) | inactive: > 100 µM
14 | Clc1ccc(OCc2nnc(CCCCCCCCc3nnc(COc4ccc(Cl)cc4)o3)o2)cc1 | inactive: > 100 µM
15 | Nc1nc(Cl)c(N)c(NCC2(CO)CC(OCc3ccccc3)C2)n1 (stereo not given) | inactive: > 100 µM
16 | CC(C)(C)OC(=O)N/N=C(/N)Cc1ccc(Cl)cc1 | inactive: > 100 µM
17 | COc1c(C)c(C/C=C(\C)CC/C=C(\C)CC/C=C(\C)CCC=C(C)C)c(OC)c2ccccc12 | inactive: > 100 µM
18 | CC1=C(C(=S)Nc2ccc(Cl)c(C(=O)OC(C)C)c2)SCCO1 | inactive: 24.9 µM
19 | CCCCCCCCCCCCCCCCP(=O)(O)OCC(N)C(=O)O (stereo not given) | inactive: 13.2 µM
20 | O=C(c1ccccc1)c1ccc(N2C(=O)/C(=C/c3cccc(Oc4ccccc4)c3)N=C2c2ccccc2)c(N2C(=O)/C(=C/c3cccc(Oc4ccccc4)c3)N=C2c2ccccc2)c1 | inactive: 71.1 µM
21 | CN1C(=O)CC(c2cccc(C3CC(=O)N(C)C3=O)n2)C1=O (stereo not given) | inactive: > 100 µM
22 | O=C(Nc1ccc(C(F)(F)F)cc1[N+](=O)[O-])C(=O)C(C(=O)c1ccc2ccccc2c1)C1OC(=O)c2ccccc21 (stereo not given) | inactive: 3.94 µM
23 | CC(=O)CC12NC(=O)N(C)N=C1N(C)C(=O)N(C)C2=O (stereo not given) | inactive: > 100 µM

Row | SMILES | GI50
24 | O=Cc1ccc(-c2cc(C=O)c(-c3cccs3)[nH]2)s1 | inactive: 51.4 µM
25 | CC1=NN(c2nc(N)nc(CCl)n2)C(C)(C)C1 | inactive: 42.4 µM
26 | C/C(=N\NC(=S)N1CCCCC1)c1cccc(C)n1 | active: < 0.0134 µM
27 | CSC1=C(c2ccc(Cl)cc2)SC(N2CCCCC2)N1c1ccc([N+](=O)[O-])cc1 (stereo not given) | inactive: 29.3 µM
28 | COC(=O)/C=C(/OC)[C@H](C)[C@H](/C=C/c1csc(-c2csc(C(C)C)n2)n1)OC | inactive: 1.93 µM
29 | CCOC(=O)c1csc(NC(=O)CN(C)C)n1 | inactive: > 100 µM
30 | O=S(=O)(O)C(O)/C=C/c1ccccc1 (stereo not given) | inactive: > 100 µM
31 | Nc1nc(Cl)c2ncn(CCCC(c3ccccc3)P(=O)(O)O)c2n1 (stereo not given) | inactive: > 100 µM
32 | CC(C)(O)/C=C\P(=O)(O)O | inactive: > 100 µM
33 | C=CC[P@@]1(=O)O[C@H](c2ccccc2)C(C)N1C(C)C (stereo not given in full) | inactive: > 100 µM
34 | CN(c1cn(C2CC[C@@H](CO)O2)c(=O)[nH]c1=O)C1CCCCC1 (stereo not given in full) | inactive: > 100 µM
35 | CON(C)C(=O)C(Cc1ccccc1)NC(=O)OCc1ccccc1 (stereo not given) | inactive: > 100 µM
36 | CN(C)CCOC1(CC2CCCCC2)CCC(C(C)(C)C)CC1 (stereo not given) | inactive: 6.82 µM
37 | COc1cc(C)c2c(c1C)OC(=O)c1c(C)c(Cl)c(O)c(C=O)c1O2 | inactive: 21.5 µM
38 | Nc1ccc(-c2nc3cc(F)ccc3s2)cc1Br | inactive: 1.28 µM
39 | CCCCCCCCCCCC[N+]12CC[N+](C)(CC1)CC2 | inactive: 29.9 µM
40 | O=[N+]([O-])c1ccc2c(c1)Nc1c3ccccc3nc3cccc-2c13 | inactive: 14 µM
41 | Cc1cc(S(=O)(=O)Nc2nc3ccccc3c(=O)n2N)c(S)cc1Cl | inactive: 37.5 µM
42 | NC(=O)C[C@H](NC(=O)C1(NC(=O)[C@H](Cc2ccc(CP(=O)(O)O)cc2)NC(=O)C(=O)O)CCCCC1)C(=O)NCCCc1cccc2ccccc12 | inactive: > 10 µM
43 | COc1ccc2c(=O)c(O)c(-c3ccc(OC)c(OC)c3)oc2c1 | inactive: 6.11 µM
44 | Nc1ccc(N)c2c1C(=O)c1c(N)ccc(N)c1C2=O | inactive: > 73.1 µM
45 | CC1=C(SCCO)C(=O)c2ccccc2C1=O | inactive: 15.1 µM
